# Source: paper PMC9669179 (Epilepsia, 2022)
# Test: Brain pharmacokinetics in rats
# Settings: rat, high dose i.p.: CLB 37, CBZ 24, VPA 315, LEV 800 mg/kg
compound,measurement,value
"CN1C(=O)CC(=O)N(c2ccccc2)c2cc(Cl)ccc21 [CLB, Clobazam]",Brain AUC (0-8 hr),7.86 ng·h/mg
same,Brain Cmax,6.59 ng/mg
same,Brain Cmin,0.051 ng/mg
